Reference: PubChem BioAssay AID624170 (National Center for Advancing Translational Sciences (NCATS), 2012)
Hit rate of the full screen: of about 410,000 compounds, about 850 (0.21%) were called active. Inconclusive results, whose numbers are uncertain, are shown with a selection of clear calls. The call rests on the fitted dose curve; in most records, active means well fitted inhibition curve with a large enough effect; inconclusive means small, poorly fitted or top-dose-only effect, or another doubt; inactive means no such curve, though single readings can be large or run the other way. Potencies of inconclusive entries are left out as doubtful fits.

Target: Glutaminase kidney isoform, mitochondrial (Homo sapiens) (UniProt O94925)
Chain of UniProt O94925 (O94925 whole entry, looked up, canonical isoform): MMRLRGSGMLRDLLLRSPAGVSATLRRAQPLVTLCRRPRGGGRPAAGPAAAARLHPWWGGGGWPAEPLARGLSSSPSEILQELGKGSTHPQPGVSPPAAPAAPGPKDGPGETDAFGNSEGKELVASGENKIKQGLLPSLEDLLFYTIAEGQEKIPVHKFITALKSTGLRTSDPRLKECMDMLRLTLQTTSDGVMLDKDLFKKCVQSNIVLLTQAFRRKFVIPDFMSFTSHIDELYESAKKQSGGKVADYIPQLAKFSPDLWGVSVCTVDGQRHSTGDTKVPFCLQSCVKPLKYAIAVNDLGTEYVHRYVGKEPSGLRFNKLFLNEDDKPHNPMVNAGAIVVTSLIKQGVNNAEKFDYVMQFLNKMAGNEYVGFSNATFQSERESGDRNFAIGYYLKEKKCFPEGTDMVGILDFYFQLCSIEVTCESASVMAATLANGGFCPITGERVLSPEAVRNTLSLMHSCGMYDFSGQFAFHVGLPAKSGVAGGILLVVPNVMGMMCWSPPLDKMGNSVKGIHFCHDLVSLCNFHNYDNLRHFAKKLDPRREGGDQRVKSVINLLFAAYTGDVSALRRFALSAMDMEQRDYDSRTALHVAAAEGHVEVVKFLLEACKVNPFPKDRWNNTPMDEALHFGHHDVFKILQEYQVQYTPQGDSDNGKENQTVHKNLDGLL
Assay: qHTS for Inhibitors of Glutaminase (GLS)
Settings: GLS enzymatic activity, qHTS titration; series mostly up to 45.5 µM
Outline: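 Human kidney-isoform GLS in 45 mM KH2PO4 pH 8.2, 0.02% Tween-20, with compound, started with 1mM L-Glutamine (added stock). Glutamate oxidase/HRP/Amplex red coupled fluorescence read at start and after 30 min at RT.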
Potency means the concentration at half of the fitted maximal effect; tags describe the fitted curve by direction and shape.

| Structure (SMILES) | Potency |
| --- | --- |
| CCOC(=O)c1c(NC2=NS(=O)(=O)c3ccccc32)sc2c1CCCCC2 | inactive |
| Cn1c(=O)n(Cc2ccccc2Cl)c(=O)c2c1[nH]c(=S)n2C | active: 14.1 µM |
| Fc1ccc(OCc2nc(-c3ccc(Br)o3)no2)c(F)c1 | inactive |
| CCOC(=O)c1c(-n2cnnn2)sc2c1CCCC2 | inactive |
| NC(=O)c1ccccc1NC(=O)CCN1C(=O)c2ccccc2C1=O | inconclusive [inhibitor, partial curve, poor fit] |
| COc1cccc(O)c1CN1CCC(C(=O)Nc2ccc(Oc3cccnc3)cc2)CC1 | inactive |
| COc1cc(C2/C(=C(/O)c3ccccc3)C(=O)C(=O)N2c2ccccn2)ccc1O (stereo not given) | active: 8.91 µM |
| CCc1cccc(CC)c1NC(=S)NCCc1ccc(O)c(O)c1 | inconclusive [inhibitor, single point] |
| CCOC1CCCC(n2cnc3c(=S)nc[nH]c32)O1 (stereo not given) | inconclusive [inhibitor, single point] |
| CCCC(=O)C1=C(c2ccc(C)cc2)N(C(=O)CCC)n2cnnc2S1 | inactive |
| Cc1cc(NC(=O)c2cnn3c(C(F)F)cc(-c4ccccc4)nc23)no1 | inconclusive [inhibitor, partial curve] |
| CCc1ccc(N2NC(=O)/C(=C/C=C/c3ccco3)C2=O)cc1 | inactive |
| CCOC(=O)C1CCN(S(=O)(=O)c2cc(Br)cc3c2N(C(C)=O)C(C)C3)CC1 (stereo not given) | inconclusive [inhibitor, single point] |
| O=C(O)/C=C/C(=O)NCc1csc2ccccc12 | inactive |
| COc1ccc(C2(C(=O)N3CCOCC3)CCCC2)cc1 | inactive |
| CC(=O)c1cc(C#N)c(Oc2cc(C)cc(C)c2)nc1C | inconclusive [inhibitor, single point] |
| COc1ccc(C(=O)NC(C(=O)N2CCN(c3ccccc3O)CC2)C(C)C)cc1 (stereo not given) | inconclusive [inhibitor, full curve] |
| O=C(Nc1ccc(N2CCOCC2)nc1N1CCOCC1)c1cccc(C(F)(F)F)c1 | inconclusive [inhibitor, partial curve, poor fit] |
| Cc1cc(C)cc(NC(=O)CN(c2ccc(F)cc2)S(C)(=O)=O)c1 | inconclusive [inhibitor, single point] |
| CCOC(=O)c1sc2nc3c(SCCC(=O)O)cc(C(=O)c4cc(OC)ccc4O)cn3c(=O)c2c1C | active: 5.62 µM |
| O=NC1=C(c2c(O)[nH]c3ccccc23)CCCC1 | inconclusive [inhibitor, single point] |
| CCOc1cc(C2C(C#N)=C(N)OC(C)=C2C(C)=O)cc(Br)c1O (stereo not given) | inconclusive [inhibitor, single point] |
| COc1cccc(-c2nc3c(C#N)c[nH]n3c2NC2CCCC2)c1OC | inconclusive [inhibitor, single point] |

| Structure (SMILES) | Potency |
| --- | --- |
| CC1CCCCN1C(=O)c1ccc2c(c1)N(Cc1ccc(F)cc1)C(=O)c1ccccc1S2(=O)=O (stereo not given) | inconclusive [inhibitor, partial curve, poor fit] |
| COc1cccc(CC2(CO)CCCN(Cc3ccc(-c4ccco4)cc3)C2)c1 (stereo not given) | inconclusive [inhibitor, single point] |
| CN(C)CCCN(C(=O)c1ccc2c(c1)OCCO2)c1nc2cc3c(cc2s1)OCO3 | inactive |
| CCOc1ccccc1NC(=O)n1ncc2c(C)cccc21 | inconclusive [inhibitor, full curve, poor fit] |
| COc1ccccc1CNC(=O)c1cn(C)c(=O)c2cc(OC)c(OC)cc12 | inconclusive [inhibitor, single point] |
| CCOC(=O)c1cc(-c2ccccc2)n(CCC(=O)NCCc2ccccc2)c1C | inactive |
| CCOC(=O)N1CCN(Cc2nc3cc(NC(=O)c4ccco4)ccc3n2C)CC1 | inconclusive [inhibitor, single point] |
| S=c1[nH]nc(-c2n[nH]c3c2CCC3)n1/N=C/C=C/c1ccccc1 | inconclusive [inhibitor, partial curve, poor fit] |
| O=C1CCCCC(=O)[C@H](O)C[C@H](COCc2ccccc2)O1 | inconclusive [inhibitor, partial curve] |
| CCOC(=O)C1CCN(C2CC(=O)N(c3cccc(Cl)c3)C2=O)CC1 (stereo not given) | inconclusive [inhibitor, single point] |
| O=C1c2ccccc2C(=O)N1C1C(=O)N2CCSC12C(=O)OCc1ccccc1 (stereo not given) | inactive |
| O=C(Nc1ccc(S(=O)(=O)Nc2cnc3ccccc3n2)cc1)c1cc(F)c(F)cc1Cl | inactive |
| Cc1[nH]c(=S)c(C#N)c(-c2ccco2)c1C(=O)N(C)C | inactive |
| CCc1ccc(NCc2cc3cc4c(cc3n(CC(=O)Nc3ccccc3Cl)c2=O)OCO4)cc1 | inconclusive [inhibitor, single point] |
| CN(C)C(=S)NCc1ccccc1 | inconclusive [inhibitor, single point] |
| Cn1c(C(=O)OC(C(=O)NCc2ccco2)c2ccncc2)cc2sccc21 (stereo not given) | inconclusive [inhibitor, single point] |
| O=C1C(C=Nc2ccccc2O)=C(O)c2ccccc21 | inactive |
| Cn1cccc1/C=N/n1c(-c2ccc(C(C)(C)C)cc2)n[nH]c1=S | inconclusive [inhibitor, partial curve, poor fit] |
| O=C(CN1CCCc2ccccc21)Nc1cccc(S(=O)(=O)N2CCCC2)c1 | inactive |
| CCc1ccc(CNC(=O)C2CCN(c3nnc(C)c4c(C)n(-c5ccc(C)cc5)nc34)CC2)cc1 | inconclusive [inhibitor, partial curve] |
| O=S(=O)(NCCCN1CCOCC1)c1ccc(Cl)s1 | inconclusive [inhibitor, single point] |
| CCOc1ccc(NC(=S)NNc2ccnc3cc(Cl)ccc23)cc1 | inconclusive [inhibitor, partial curve, poor fit] |
